22 compounds from the supplement of paper PMC4604168 (melanoma cell lines) can be followed below.

Each structure is given as a SMILES string. Some of the results follow. Many values rest on one well or one pass, so single values are uncertain.
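Further: cell number obtained by counting DAPI-stained nuclei in high-throughput microscope images with image analysis software, screen run in 1,536-well plates.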

This experiment deals with A101D. Kind of experiment: cell count relative to DMSO control; melanoma cells; higher = more viable cells. The conditions noted are these: library dose: low library concentration; 72 h.
Compound `COCC[n+]1c2c(n(Cc3cnccn3)c1C)C(=O)c1ccccc1C2=O` + Cn1nnc2c(C(N)=O)ncn2c1=O [temozolomide] (first compound 0.0004 µM, partner dose 2 µM) registered a cell count of 95.1%.

Compound `Clc1ccc(Nc2nnc(Cc3ccncc3)c3ccccc23)cc1` [vatalanib] + COc1ccc(Cl)c(Nc2nc3ccccc3nc2NS(=O)(=O)c2cccc(NC(=O)C(C)(C)N)c2)c1 [XL147] (first compound 2 µM, partner dose 0.8 µM) showed a cell count of 95.7%.

Take `Cn1c(Nc2ccc(C(F)(F)F)cc2)nc2cc(Oc3ccnc(-c4ncc(C(F)(F)F)[nH]4)c3)ccc21` + C[C@@H]1CCN(C(=O)CC#N)C[C@@H]1N(C)c1ncnc2[nH]ccc12 [CP690550] (first compound 0.08 µM, partner dose 1 µM): the cell count is 59.3%.

`Clc1ccc(Nc2nnc(Cc3ccncc3)c3ccccc23)cc1` [vatalanib] + Cc1nc(Nc2ncc(C(=O)Nc3c(C)cccc3Cl)s2)cc(N2CCN(CCO)CC2)n1 [dasatanib] (first compound 2 µM, partner dose 0.004 µM) displayed a cell count of 81.6%.

On to `C#Cc1cccc(Nc2ncnc3cc(OCCOC)c(OCCOC)cc23)c1` [erlotinib] + Nc1cccc2c1CN(C1CCC(=O)NC1=O)C2=O [lenalidomide] (first compound 0.8 µM, partner dose 1 µM), for which the cell count came to 97.5%.

`Clc1ccc(Nc2nnc(Cc3ccncc3)c3ccccc23)cc1` [vatalanib] + Cn1nnc2c(C(N)=O)ncn2c1=O [temozolomide] (first compound 2 µM, partner dose 2 µM) yielded a cell count of 92%.

`Clc1ccc(Nc2nnc(Cc3ccncc3)c3ccccc23)cc1` [vatalanib] + C[C@]1(c2nc3c(C(N)=O)cccc3[nH]2)CCCN1 [Veliparib] (first compound 2 µM, partner dose 1.4 µM) displayed a cell count of 98.6%.

Turning to `C#Cc1cccc(Nc2ncnc3cc(OCCOC)c(OCCOC)cc23)c1` [erlotinib] + C[C@]1(c2nc3c(C(N)=O)cccc3[nH]2)CCCN1 [Veliparib] (first compound 0.8 µM, partner dose 1.4 µM), the cell count is 86.5%.

As for `OCc1c[nH]c2ccccc12` [Indole-3-carbinol] + Cn1nnc2c(C(N)=O)ncn2c1=O [temozolomide] (first compound 0.8 µM, partner dose 2 µM), the cell count came out at 93.5%.

The compound `Cn1c(Nc2ccc(C(F)(F)F)cc2)nc2cc(Oc3ccnc(-c4ncc(C(F)(F)F)[nH]4)c3)ccc21` + Nc1cccc2c1CN(C1CCC(=O)NC1=O)C2=O [lenalidomide] (first compound 0.08 µM, partner dose 1 µM) registered a cell count of 62.1%.

Regarding `Nc1cccc2c1CN(C1CCC(=O)NC1=O)C2=O` (configuration not stated) [lenalidomide] + Cn1nnc2c(C(N)=O)ncn2c1=O [temozolomide] (first compound 1 µM, partner dose 2 µM), the cell count was determined as 89%.

On to `O=C(CCCCCCC(=O)Nc1ccccc1)NO` [vorinostat] + COc1cc(Nc2ncc(F)c(Nc3ccc4c(n3)NC(=O)C(C)(C)O4)n2)cc(OC)c1OC [Tamatinib] (first compound 0.08 µM, partner dose 0.4 µM), for which the cell count is 81.2%.

As to `Cn1c(Nc2ccc(C(F)(F)F)cc2)nc2cc(Oc3ccnc(-c4ncc(C(F)(F)F)[nH]4)c3)ccc21` + Cn1cncc1[C@@](N)(c1ccc(Cl)cc1)c1ccc2c(c1)c(-c1cccc(Cl)c1)cc(=O)n2C [tipifarnib] (first compound 0.08 µM, partner dose 0.01 µM), the cell count came to 57.8%.

Turning to `C#Cc1cccc(Nc2ncnc3cc(OCCOC)c(OCCOC)cc23)c1` [erlotinib] + Cn1c(Nc2ccc(C(F)(F)F)cc2)nc2cc(Oc3ccnc(-c4ncc(C(F)(F)F)[nH]4)c3)ccc21 [CHIR265] (first compound 0.8 µM, partner dose 0.08 µM), the cell count stood at 59.4%.

The compound `Clc1ccc(Nc2nnc(Cc3ccncc3)c3ccccc23)cc1` [vatalanib] + C#Cc1cccc(Nc2ncnc3cc(OCCOC)c(OCCOC)cc23)c1 [erlotinib] (first compound 2 µM, partner dose 0.8 µM) registered a cell count of 83.2%.

The compound `OCc1c[nH]c2ccccc12` [Indole-3-carbinol] + Nc1cccc2c1CN(C1CCC(=O)NC1=O)C2=O [lenalidomide] (first compound 0.8 µM, partner dose 1 µM) returned a cell count of 96.9%.

`Clc1ccc(Nc2nnc(Cc3ccncc3)c3ccccc23)cc1` [vatalanib] + Cn1c(Nc2ccc(C(F)(F)F)cc2)nc2cc(Oc3ccnc(-c4ncc(C(F)(F)F)[nH]4)c3)ccc21 [CHIR265] (first compound 2 µM, partner dose 0.08 µM): the cell count was found to be 54%.

For `Cn1c(Nc2ccc(C(F)(F)F)cc2)nc2cc(Oc3ccnc(-c4ncc(C(F)(F)F)[nH]4)c3)ccc21` + C[C@]1(c2nc3c(C(N)=O)cccc3[nH]2)CCCN1 [Veliparib] (first compound 0.08 µM, partner dose 1.4 µM), the cell count came out at 56.8%.

The compound `OCc1c[nH]c2ccccc12` [Indole-3-carbinol] + Cc1nc(Nc2ncc(C(=O)Nc3c(C)cccc3Cl)s2)cc(N2CCN(CCO)CC2)n1 [dasatanib] (first compound 0.8 µM, partner dose 0.004 µM) showed a cell count of 79.5%.

Take `Cn1c(Nc2ccc(C(F)(F)F)cc2)nc2cc(Oc3ccnc(-c4ncc(C(F)(F)F)[nH]4)c3)ccc21` + COCC[n+]1c2c(n(Cc3cnccn3)c1C)C(=O)c1ccccc1C2=O [YM155] (first compound 0.08 µM, partner dose 0.0004 µM): the cell count was 58.6%.

For `Clc1ccc(Nc2nnc(Cc3ccncc3)c3ccccc23)cc1` [vatalanib] + C=CCn1c(=O)c2cnc(Nc3ccc(N4CCN(C)CC4)cc3)nc2n1-c1cccc(C(C)(C)O)n1 [MK1775] (first compound 2 µM, partner dose 0.02 µM), the cell count was 67.2%.

`Clc1ccc(Nc2nnc(Cc3ccncc3)c3ccccc23)cc1` [vatalanib] + Nc1cccc2c1CN(C1CCC(=O)NC1=O)C2=O [lenalidomide] (first compound 2 µM, partner dose 1 µM) gave a cell count of 107%.
